# Measured values reported in PubChem BioAssay AID662 (National Center for Advancing Translational Sciences (NCATS), 2007).
# Where “and” joins values, the source holds several entries; their conditions need not be identical. Equal values may be shown once. Hit rate of the full screen: of about 71,000 compounds, about 1,800 (2.5%) were called active. Inconclusive results, whose numbers are uncertain, are shown with a selection of clear calls. Calls come from the whole dose curve; as a rule, active = well fitted activation curve with a large enough effect in the signal ratio, with a control signal flat (not every such curve was filed as active); inconclusive = small, poorly fitted or top-dose-only effect, or effect the other way, or a change in a side signal; inactive = flat fitted curve, though single readings scatter; the % refers to the signal ratio. Where the call is inconclusive, the potency comes from a doubtful curve fit.
# Experiment: Cell signaling CRE-BLA (Fsk stim); for activity change, negative = inhibition: % of control where 0% means no effect
# Conditions: CHO CRE-bla reporter (cAMP response element driving beta-lactamase), forskolin EC10, beta-lactamase ratio
# Summary of the method: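 CHO CRE-bla cells, overnight plating in Opti-MEM with 0.5% dialyzed FBS; cpd titration + EC10 NKH 477, 3 h 37 °C; CCF4 2 h RT; ex 405/em 460 vs 530 ratio → %Activity, AC50.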
# [1] = activity change, negative = inhibition: at 38.2 µM (top of the series) unless noted
# Potency is the fitted concentration of half-maximal effect; tags give direction and shape of the fitted curve.
smiles,measurement,setting,value
CCC(=O)Nc1nonc1-c1nc2ccccc2n1N(C(=O)CC)C(=O)CC,Potency,[1],inactive
O=C(CCN1C(=O)c2ccccc2C1=O)Nc1sc2c(c1C(=O)NCc1ccco1)CCCC2,Potency,[1],inactive
CSc1nccn1CC(=O)Nc1ccc(F)cc1,"activity change, negative = inhibition",[1],inconclusive: 3.29%
Cc1cc(C)n(-c2nc(NCCO)c3c4c(sc3n2)CCCC4)n1,Potency,[1],"inconclusive: 2 µM [rising, partial curve]"
O=C(Nc1ccc2oc(-c3ccccc3Cl)nc2c1)c1cncc(Br)c1,Potency,[1],active: 0.501 µM
N#Cc1cc2c(nc1SCC(=O)Nc1sc3c(c1C#N)CCC3)CCCCC2,"activity change, negative = inhibition",[1],inconclusive: 14.4%
c1ccc(OCCSc2nnnn2-c2ccccc2)cc1,Potency,[1],inactive
Cc1nc2nc(C)c(CCC(=O)NCCCN3CCN(c4cccc(Cl)c4)CC3)c(C)n2n1,"activity change, negative = inhibition",[1],inconclusive: -21.9%
COC(=O)[C@@]1(Cc2ccccc2)[C@H]2c3cc(C(=O)N(C)C)n(Cc4ccsc4Br)c3C[C@H]2CN1C(=O)c1ccccc1,"activity change, negative = inhibition",[1],inconclusive: 9.93%
O=C(CSc1nnnn1-c1ccccc1)N1CCN(C(=O)c2ccco2)CC1,Potency,[1],inactive
O=C(CSc1nnc(Cc2cccs2)n1C1CCCCC1)N1CCCc2ccccc21,Potency,[1],inactive
CCc1ccc(NC(=O)c2noc3c2CCCCC3)cc1,Potency,[1],"inconclusive: 3.98 µM [falling, partial curve]"
CCCCn1c(-c2ccsc2)nc2c1c(=O)[nH]c(=O)n2CCC,Potency,[1],"inconclusive: 12.6 µM [rising, partial curve]"
Cc1cc(SCC(=O)c2ccc(Br)cc2)cc(C)[o+]1,"activity change, negative = inhibition",[1],inactive: -3.32% [at 7.6 µM]
COc1ccc(-n2c(Cc3cccn3C)nnc2SCC(=O)Nc2cccc(F)c2)cc1,Potency,[1],inactive
COC(=O)C1(C)C=CC2(CCCCC2)N1C(C)=O (stereo not given),Potency,[1],inactive
COC(=O)C1=CN(C(C)C)C=C(C(=O)OC)C1c1cccc(OC)c1,Potency,[1],active: 12.6 µM
CCOC(=O)C1Cn2c(nc3c(c2=O)C2(CCCC2)Cc2ccccc2-3)S1 (stereo not given),Potency,[1],"inconclusive: 2.51 µM [rising, partial curve, poor fit]"
O=C(c1ccc(S(=O)(=O)N2CCC(c3nc4ccccc4[nH]3)CC2)cc1)N1CCOCC1,Potency,[1],inactive
Cc1sc2nc(SCC(=O)N3CCCC3)[nH]c(=O)c2c1C,Potency,[1],"inconclusive: 10 µM [rising, partial curve]"
Nc1nc2ccc(Cl)cc2c2nc(-c3ccco3)nn12,Potency,[1],active: 10 µM and active: 200 nM
Cc1sc2nc(CN(C(=O)c3cccs3)C3CCCC3)[nH]c(=O)c2c1C,Potency,[1],"inconclusive: 10 µM [rising, single point]"
Cc1cc2ncn(CCOc3ccccc3C#N)c2cc1C,"activity change, negative = inhibition",[1],inconclusive: 29.9%
Cc1ccc(C2CC(C(F)(F)F)n3nc(C(=O)NCCN4CCOCC4)cc3N2)cc1 (stereo not given),"activity change, negative = inhibition",[1],inconclusive: -6.54%
O=c1[nH]c(-c2ccccc2)c(-c2ccccc2)[nH]1,"activity change, negative = inhibition",[1],inconclusive: 18.2%
NCCOc1ccccc1-c1ccccc1,Potency,[1],inactive
O=C(O)C[C@@H]1CCCc2ccccc2[C@H]1O,Potency,[1],inactive
CCS(=O)(=O)NCCc1cc2ccc(C)cc2[nH]c1=O,Potency,[1],inactive
COc1ccc(C2=NOC(CN3C(=O)c4ccccc4S3(=O)=O)C2)cc1 (stereo not given),Potency,[1],inactive
Cc1[nH]nc2c1C(c1cccc(O)c1)C1=C(CC(C)(C)CC1=O)N2 (stereo not given),Potency,[1],inactive
CCOC(=O)c1ccc(Oc2nc(SC)nc(N(C)C)n2)cc1,Potency,[1],"inconclusive: 0.02 µM [rising, partial curve, poor fit]"
COc1ccc(CNc2nc(-c3ccc(N(C)C)cc3)nc3ccccc23)c(OC)c1,"activity change, negative = inhibition",[1],inconclusive: -13% [fluorescent]
CCC(C)n1c(SCC(=O)NC(=O)Nc2ccc3c(c2)OCCO3)nc2ccccc2c1=O (stereo not given),Potency,[1],inactive
COc1ccc(Nc2ncc3c(n2)CC(c2ccc(OC)cc2)CC3=O)cc1 (stereo not given),Potency,[1],"inconclusive: 15.8 µM [rising, single point]"
Cc1ccc(C)c(N2CCN(S(=O)(=O)c3ccc4c(c3)OCCO4)CC2)c1,Potency,[1],inactive
COC(=O)[C@@]1(Cc2ccc(OC)cc2)[C@H]2c3cc(C(=O)N(C)C)n(Cc4ccccn4)c3C[C@H]2CN1C(=O)c1ccccc1,"activity change, negative = inhibition",[1],inconclusive: 5.07%
COCCNC(=O)CSc1nc(-c2ccc(OC)c(OC)c2)cc(C(F)(F)F)n1,"activity change, negative = inhibition",[1],inconclusive: 20.2%
COc1ccc(-c2nc(C#N)c(N3CCOCC3)o2)cc1OC,Potency,[1],"inconclusive: 5.01 µM [rising, partial curve]"
CCOC(=O)CS(=O)(=O)c1nc(-c2ccc(F)cc2)cc(C(F)(F)F)n1,"activity change, negative = inhibition",[1],inconclusive: -19.3%
O=C(c1ccc(Cl)cc1)c1ccccc1C(=O)N1CCOCC1,"activity change, negative = inhibition",[1],inconclusive: -8.81%
O=C(CN1C(=O)COc2ccccc21)N1CCN(c2ccccc2F)CC1,"activity change, negative = inhibition",[1],inconclusive: -7.17%
Cc1cc(C)c2c(CN3CCN(CCO)CC3)cc(=O)oc2c1,"activity change, negative = inhibition",[1],inconclusive: 12.9%
CCCNC(=O)c1c(N)n(-c2cc(OC)cc(OC)c2)c2nc3ccccc3nc12,Potency,[1],"inconclusive: 10 µM [rising, partial curve]"
CC(=O)N1CCC(Nc2ccc(C)cc2)CC1,Potency,[1],inactive
O=C(Nc1ccc(-c2nc3ccccc3[nH]2)cc1)c1ccco1,Potency,[1],inactive
CCOC(=O)N1CCC(NC(=O)c2ccc3c(=O)n4c(nc3c2)CCCC4)CC1,Potency,[1],inactive
CC(O)COC(C)(C)C (stereo not given),Potency,[1],inactive
N#CCSc1nc2ccccc2c(=O)n1-c1ccccc1,"activity change, negative = inhibition",[1],inconclusive: 7.44% [cytotoxic]
CCc1nc(SCc2ccccn2)c2c(=O)n(C)c(=O)n(C)c2n1,Potency,[1],active: 2.51 µM
CCC(=O)Nc1cc2c(cc1C(C)=O)OCCO2,Potency,[1],inactive
COc1cc2c(cc1C(F)(F)F)N(C(=O)Nc1cc(F)cc(-c3cccnc3)c1)CC2,"activity change, negative = inhibition",[1],inconclusive: 11.8%
same,"activity change, negative = inhibition",at 38.2 µM (top of the series),inactive: 0.946%
Cc1cnc(CNc2ncnc3ccc(-c4ccccc4CN(C)C)cc23)cn1,"activity change, negative = inhibition",[1],inconclusive: -6.38%
COc1ccc(-c2nc3cnc(N4CCNCC4)nc3n(CCC#N)c2=O)cc1,Potency,[1],"inconclusive: 2 µM [rising, partial curve]"
N#CCSc1nc2cc(C(=O)N3CCC(C(N)=O)CC3)ccc2c2nc3ccccc3n12,Potency,[1],active: 2.51 µM
CCCCNC(=O)CSc1nc2ccc(N3CCOCC3)cc2c(=O)n1CCc1ccccc1,Potency,[1],inactive
Cc1cc(C(=O)CSc2nnnn2C)c(C)n1-c1ccc2c(c1)OCCO2,"activity change, negative = inhibition",[1],inconclusive: 2.67%
CCCOc1ccc(Cc2nc(N)nc(N)n2)cc1,Potency,[1],"inconclusive: 12.6 µM [rising, single point]"
COc1ccc(C)cc1S(=O)(=O)Nc1cccc(Cl)c1,"activity change, negative = inhibition",[1],inconclusive: -31.4%
N=c1n(CCN2CCOCC2)c2ccccc2n1Cc1ccccc1Br,"activity change, negative = inhibition",[1],inconclusive: -1.6%
Cc1cc(C)c2cc3c(ccn3C3OC[C@H](O)[C@H](O)[C@H]3O)cc2n1 (stereo not given in full),"activity change, negative = inhibition",[1],inconclusive: -20.1%
COc1ccc(NCc2nnc(SCC(=O)Nc3cc(C(F)(F)F)ccc3Cl)o2)cc1,Potency,[1],inactive
Cn1cc(Br)c(C(=O)NC2CCCCC2)n1,"activity change, negative = inhibition",[1],inconclusive: -5.59%
CCc1nc2c(cnn2-c2ccc(Cl)cc2)c(=O)n1-c1ccc2c(c1)OCCO2,"activity change, negative = inhibition",[1],inconclusive: 27.7%
COc1ccc(-c2cc(C(F)(F)F)n3nc(C(=O)O)nc3n2)cc1,Potency,[1],inactive
CC12CN(C(=O)c3ccccc3)C3(C#N)CC1CCC23C (stereo not given),"activity change, negative = inhibition",[1],inconclusive: 13%
O=C(CCN1C(=O)c2ccccc2C1=O)Nc1ccc(F)cc1,Potency,[1],inactive
COC(=O)[C@@]1(Cc2ccc(F)cc2)[C@H]2c3cc(C(=O)N4CCCC4)n(CCc4c[nH]c5ccccc45)c3C[C@H]2CN1C(=O)c1ccccc1,Potency,[1],inactive
Cc1cc(Oc2ccc(-c3ccccc3)cc2)n2ncnc2n1,"activity change, negative = inhibition",[1],inconclusive: 10.4%
O=C(Cn1cccc1C(=O)c1ccccc1)NCCN1CCOCC1,"activity change, negative = inhibition",[1],inconclusive: -6.38%
Cn1c(SCc2nc3ccccc3s2)nnc1-c1cccs1,Potency,[1],inactive
c1ccc2c(c1)CCCN2Cc1nnnn1CC1CCCO1 (stereo not given),"activity change, negative = inhibition",[1],inconclusive: -26.6%
CCN1C(=O)c2ccc(C(=O)NCc3ccccc3)cc2C1=O,Potency,[1],"inconclusive: 12.6 µM [rising, single point]"
CNc1ncnc2ccc(-c3ccccc3C#N)cc12,Potency,[1],"inconclusive: 12.6 µM [rising, partial curve]"
CCCCOC(=O)C(C)Nc1n[nH]c(=O)[nH]c1=O (stereo not given),Potency,[1],"inconclusive: 25.1 µM [rising, single point]"
CC(C)(C)c1cc(C(c2cccnc2)N2CCN(CCO)CC2)cc(C(C)(C)C)c1O (stereo not given),Potency,[1],"inconclusive: 3.16 µM [falling, single point]"
Cn1c(C(=O)NCCCN2CCCC2=O)cc2c(=O)n3ccccc3nc21,Potency,[1],active: 5.01 µM
COC(=O)c1sc(N)c(C(=O)OC)c1COC(=O)C1CC(=O)N(Cc2ccco2)C1 (stereo not given),Potency,[1],"inconclusive: 12.6 µM [rising, partial curve]"
COc1ccc2nc(SCC(=O)N(C)C3CCCCC3)c(C#N)cc2c1,Potency,[1],"inconclusive: 10 µM [rising, single point]"
Cc1cc(C)nc(SCc2n[nH]c(=S)n2C)n1,"activity change, negative = inhibition",[1],inconclusive: -2.86%
O=C(O)NCc1ccccc1 (tested in a mixture with another compound),"activity change, negative = inhibition",[1],inactive: 0.472% [at 7.6 µM]
CCOC(=O)C(C)Sc1nc(-c2ccco2)cc(C(F)(F)F)c1C#N (stereo not given),Potency,[1],inactive
COc1ccc(OC)c(N2C(=O)C(Cl)=C(N3CCCCC3)C2=O)c1,Potency,[1],"inconclusive: 1.58 µM [rising, partial curve, poor fit]"
COc1cccc(-c2n[nH]c(=S)n2Cc2ccco2)c1OC,Potency,[1],inactive
COc1ccc(CCNC(=O)c2ccc3nc(-c4ccco4)c(-c4ccco4)nc3c2)cc1OC,"activity change, negative = inhibition",[1],inconclusive: 5.21%
